Results from the supplement of paper PMC11417369.
The list shows a part of the results.

What follows are sequences tested on PfHDP1 homeodomain (GST-tagged) (assay: gcPBM binding intensity (ln(normalized median fluorescence intensity)); higher = stronger DNA binding).
How it was run: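 DNA-binding domains from P. falciparum, fused to GST and produced in E. coli, were put on an Agilent 4 × 180k double-stranded probe array for 1 h in 1× PBS holding 1% milk, 0.2 mg/ml BSA, 0.5% salmon testes DNA and 0.03% Triton X-100. Probes were primer-extended, 36 bp long and drawn from intergenic genomic regions, with negative controls included. After Alexa488 anti-GST antibody detection and a 488 nm scan, binding intensity was set as the highest Masliner-normalised natural-log median intensity across replicate spots of either probe orientation.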

| Sequence | gcPBM binding intensity (ln) |
| --- | --- |
| TATTATGCCTTTAATATACACACTAATATTTTTTTG [CACACA_site2045] | 6.61 |
| ATTTATCCAAAAAAATGTACAGGATAATTTGTTCAT [XGTACX_site7737] | 6.34 |
| CATAATACCTATAACACACACAATTATACATAAACT [CACACA_site7506] | 6.68 |
| TATAAAAATTAATATTGTACGTTTTATGAAAATAAA [XGTACX_site8237] | 6.13 |
| TACACCCACCAACACACACACACACCCAAAAAAAAA [CACACA_site498] | 7.04 |
| AACATACATAAACACACACACACACCCACACCCACA [CACACA_site8058] | 6.88 |
| TTTATATATTTATTCACACATATAATATTCCGTCGT [CACACA_site6120] | 6.58 |
| TTTATGAAACAGTGCACACATAAAAATATATACATA [CACACA_site2992] | 10.1 |
| AACTTTATACTTTTTTGTACTTAACCCTTACATTTT [XGTACX_site5798] | 7.05 |
| TAGATAAATGGGTATACACACATATACATAAATATA [CACACA_site375] | 6.51 |
| GTAAGATTTCTTGTTGCATGCGGTAAAAAGTAAAAT [TGCATGCA_site469] | 7.18 |
| TAACGCATGAATATAATATATATATATATAAAAATA [GTGCAC_negctrl_site218] | 6.58 |
| ATTGTATGCACGTCTGCACACTTTTTTTTTTTTTTT [CACACA_site2082] | 11 |
| GTTAATTGAAGATTCACACATAAATATATATATAAT [CACACA_site5482] | 6.48 |
| ATAATTCTAAATAAATGTACACACAAAAATAAATGT [XGTACX_site3547] | 6.73 |
| TATAGATGTATGTACATACACACATATATAAATAAA [CACACA_site1789] | 6.68 |
| TGTTAATTTATATTATGTACTTATAATTATCGTTTG [XGTACX_site1032] | 6.4 |
| AAAATGGGTTAGCACATACACACCAATATATTATAT [CACACA_site3082] | 6.69 |
| ATAATTATATAAATATATATAATATATATATGAAAA [XGTACX_negctrl_site357] | 6.13 |
| GTAACAAATAAAATAACACACATGTCGAAATGTATG [CACACA_site2971] | 6.41 |
| AAGAAAAACATTACGTGTACCAAAAGGCCTGTCAAC [XGTACX_site267] | 6.74 |
| AAAAAGAAATATTTATGTACATAATAATAATATTTT [XGTACX_site4693] | 6.14 |

| Sequence | gcPBM binding intensity (ln) |
| --- | --- |
| AATATAGATACATATACACACACACCCATACATATA [CACACA_site9137] | 6.91 |
| CAATTAAATATATGAACACACATGTGAACTTTCTAT [CACACA_site3977] | 6.36 |
| TATTAAATTATATAGACACACATTATATATATATAT [CACACA_site4345] | 8.86 |
| AAATACCTGATATATACACACTATGTTTTTCTTTTT [CACACA_site6680] | 6.65 |
| ATATAGTTCGTTTATACACACATGATAAGATATTTA [CACACA_site1947] | 6.8 |
| AAATCACTTTTTAAGTGTACTTGGTCTTTCTCATTT [XGTACX_site7221] | 5.84 |
| TTTTTTACATCCATAAAACTTTTTCTCTTTTAAAAT [CACACA_negctrl_site1745] | 6.17 |
| AGAGAGAAAGGTATAACATGCGATAAATTTTAGAAG [TGCATGCA_site37] | 6.58 |
| CACATACATATATACACACACAAAATAATAAAATAA [CACACA_site2308] | 6.89 |
| TTTTTAAAAATAACAGAAAAGAATTACAGATTTTTT [XGTACX_negctrl_site472] | 6.01 |
| ATGTAAATTATTATTCTATTGTTATATACACAATAT [XGTACX_negctrl_site332] | 6.74 |
| TTTTCTTGATTTTGTAGTACATTTTTACGATATTTT [XGTACX_site63] | 6.67 |
| CTCATAATTTCTGAACGTACGTATTTCTCATTTTTA [XGTACX_site7296] | 6.54 |
| CATATTCCAAGAATGTGTACATAATTTTTTTTTTTT [XGTACX_site4310] | 6.15 |
| ATTTTTTTTTAATGCAAAAGGTGATGATCGGTCATA [CACACA_negctrl_site959] | 7.31 |
| TTCTATAAGTATAAATGTACAAAAAAAACATCATTC [XGTACX_site5450] | 6.81 |
| TGTATTAATATGGTAATACACACTAATATACTTTTG [CACACA_site1610] | 6.36 |
| AGGTCTGTTTTATATTGTACATAAAAAGTGCACATG [XGTACX_site4529] | 10.1 |
| AAAAAATTGAAGGAGTGTACATTTATACTTTATTTT [XGTACX_site8623] | 6.22 |
| TGTAGAATTTCCTGAACATGCAAATAATTTTCCTTA [TGCATGCA_site881] | 6.19 |
| AACATAATAAAAATGGATATAATTCAAAGTTTGTAA [TGCATGCA_negctrl_site529] | 5.96 |
| TGTTATTCGACATATACACACAAATAACAATTTAAA [CACACA_site5076] | 6.56 |
